The source of these data is patent US20260176317A1 (RAKUTEN MEDICAL, published 2026).

The assay deals with T1, hIL-2Rβ:IL-2Rγ dimers (ACROBiosystems Cat. No. ILG-H5283) (human, UniProt P14784 27-239; P31785 23-254, limits assumed).
T1 construct: Commercial heterodimer used in solution as the analyte; also called IL-2Rβ/γc
T1 sequence (looked up) 1: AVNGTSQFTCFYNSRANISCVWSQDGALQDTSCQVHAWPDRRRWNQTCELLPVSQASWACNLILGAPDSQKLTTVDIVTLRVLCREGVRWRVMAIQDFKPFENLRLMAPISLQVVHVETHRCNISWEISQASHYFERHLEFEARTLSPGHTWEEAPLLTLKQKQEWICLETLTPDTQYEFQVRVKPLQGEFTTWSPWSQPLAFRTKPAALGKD
T1 sequence (looked up) 2: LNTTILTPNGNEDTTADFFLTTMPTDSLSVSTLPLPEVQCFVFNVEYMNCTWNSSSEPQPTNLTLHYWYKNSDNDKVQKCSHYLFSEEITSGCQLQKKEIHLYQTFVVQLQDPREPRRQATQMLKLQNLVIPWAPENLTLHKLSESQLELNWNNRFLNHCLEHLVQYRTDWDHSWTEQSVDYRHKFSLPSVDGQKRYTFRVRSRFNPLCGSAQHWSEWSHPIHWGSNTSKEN
In words: BLI (Octet), IL-15 complex captured on anti-human IgG tips, hIL-2Rβ:IL-2Rγ dimer in solution, 25 C. The protocol:
Binding affinities of exemplary human IL-15 variant complexes generated in Example 1B were determined by Bio-Layer Interferometry (BLI) using the Sartorius Octet® system. Wild-type IL-15 and IL-15 with a substitution of aspartic acid for asparagine at position 72 (IL-15_N72D), in complex with IL-15Rα-hFc, were also expressed and purified from mammalian cells, and tested as reference molecules. Briefly, the hIL-15 complexes were captured by anti-human IgG that were immobilized on an Octet optical tip. The tips were then immersed in solutions containing various serial dilutions (1:2) to 50 mM hIL-2Rβ:IL-2Rγ dimers (ACROBiosystems Cat. No. ILG-H5283) in PBS, 0.5% tween 20 at 25° C. The on rates of the interactions were calculated from the binding traces and the off rates were determined by fitting the dissociation data obtained in PBS, 0.05% tween 20 alone. Reference wells were used to subtract background noise.
Background: BLI is a label-free optical method that tracks binding on a fibre tip over time.

As a reminder, the Kd is the equilibrium constant for the complex coming apart. Read a low Kd as a tighter complex. Usually kon stands for a measure of how fast the partners come together. A higher kon goes with fast association.

B1: eIL-15-A complex (eIL-15-A in complex with IL-15Rα-hFc) (other)
chain 1: NWVNVISDLRYIESLISSMNIDACLYTESDVHPKCSVTAMLCFLLELQVISLESGDPSIHDTVENLIILANNSLSSNGNKTEDGCKECEELECKNIKEFLQSFVHIVQMFINTS
chain 2: ITCPPPMSVEHADIWVKSYSLYSRERYICNSGFKRKAGTSSLTECVLNKATNVAHWTTPSLKCIRDGGGSGGGS[human IgG1 Fc with C220S T250I (EU numbers) left out]
As to B1, the equilibrium dissociation constant (Kd) came out at 0.347 nM and the kon stood at 362000 M⁻¹ s⁻¹.

B2: eIL-15-C complex (eIL-15-C in complex with IL-15Rα-hFc) (other)
chain 1: NWVNVISDLREIESLIQNMHIDALLYTECDVHPKCKVTAMKCFLLELQVISLESGDAPIHDTVENLIILANNSLSSNGNKTEDGCKECEELEEKNIKEFLQCFVWIVQMFILTS
chain 2: ITCPPPMSVEHADIWVKSYSLYSRERYICNSGFKRKAGTSSLTECVLNKATNVAHWTTPSLKCIRDGGGSGGGS[human IgG1 Fc with C220S T250I (EU numbers) left out]
Turning to B2, the dissociation constant Kd was determined as 0.678 nM and the kon came to 349000 M⁻¹ s⁻¹.
